# Data as given in the supplement of paper PMC8728848.
# This is one part of the list.
# B1: CAA (Caragana arborescens) (protein)
# chain: VAVEFDTFDNPDWDPRTKHIGIDVNSIRSNKTTQWGFWNRQVADVDISYEASSKTLNVSLYYPGESYIVTDVVDLKDILPEWVRIGF
# Assays:
# Assay in all cases: glycan array binding signal (z-score within array); higher = stronger binding
# Conditions in all cases: glycan notation: IUPAC condensed, linker removed
# [1] = molecular target: Gal(b1-3)GlcNAc(b1-6)GalNAc
# How it was run: (§1)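 The Consortium for Functional Glycomics database supplied 3228 glycan arrays, of which those lacking an available protein sequence were dropped. The binding signal, a within-array Z-score, was averaged across arrays of the same protein sequence and across linkers. Negative scores can be read as non-binding.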
# [2] = molecular target: Gal(b1-3)GlcNAc(b1-6)[Gal(b1-3)]GalNAc
# How it was run: as §1
# [3] = molecular target: Gal(b1-3)GlcNAc6S
# How it was run: as §1
# [4] = molecular target: Gal(b1-3)[Fuc(a1-4)]GlcNAc
# How it was run: as §1
# [5] = molecular target: Gal(b1-3)[Fuc(a1-4)]GlcNAc(b1-2)Man
# How it was run: as §1
# [6] = molecular target: Gal(b1-3)[Fuc(a1-4)]GlcNAc(b1-2)Man(a1-3)[Gal(b1-3)[Fuc(a1-4)]GlcNAc(b1-2)Man(a1-6)]Man(b1-4)GlcNAc(b1-4)[Fuc(a1-6)]GlcNAc
# How it was run: as §1
# [7] = molecular target: Gal(b1-3)[Fuc(a1-4)]GlcNAc(b1-3)Gal(b1-3)[Fuc(a1-4)]GlcNAc
# How it was run: as §1
# [8] = molecular target: Gal(b1-3)[Fuc(a1-4)]GlcNAc(b1-3)Gal(b1-4)[Fuc(a1-3)]GlcNAc
# How it was run: as §1
# [9] = molecular target: Gal(b1-3)[Fuc(a1-4)]GlcNAc(b1-6)GalNAc
# How it was run: as §1
# [10] = molecular target: Gal(b1-3)[GlcNAc(b1-6)]GalNAc
# How it was run: as §1
# [11] = molecular target: Gal(b1-3)[Neu5Ac(a2-6)]GalNAc
# How it was run: as §1
# [12] = molecular target: Gal(b1-3)[Neu5Ac(a2-6)]GlcNAc(b1-4)Gal(b1-4)Glc
# How it was run: as §1
# [13] = molecular target: Gal(b1-3)[Neu5Ac(b2-6)]GalNAc
# How it was run: as §1
# [14] = molecular target: Gal(b1-4)Gal
# How it was run: as §1
# [15] = molecular target: Gal(b1-4)GalNAc(a1-3)[Fuc(a1-2)]Gal(b1-4)GlcNAc
# How it was run: as §1
# [16] = molecular target: Gal(b1-4)GalNAc(b1-3)[Fuc(a1-2)]Gal(b1-4)GlcNAc
# How it was run: as §1
# [17] = molecular target: Gal(b1-4)Glc
# How it was run: as §1
# [18] = molecular target: Gal(b1-4)Glc6S
# How it was run: as §1
# [19] = molecular target: Gal(b1-4)GlcNAc
# How it was run: as §1
# [20] = molecular target: Gal(b1-4)GlcNAc(a1-6)Gal(b1-4)GlcNAc
# How it was run: as §1
# [21] = molecular target: Gal(b1-4)GlcNAc(b1-2)Man
# How it was run: as §1
# [22] = molecular target: Gal(b1-4)GlcNAc(b1-2)Man(a1-3)Man(b1-4)GlcNAc(b1-4)GlcNAc
# How it was run: as §1
# [23] = molecular target: Gal(b1-4)GlcNAc(b1-2)Man(a1-3)[Gal(b1-4)GlcNAc(b1-2)Man(a1-6)]Man(b1-4)GlcNAc(b1-4)GlcNAc
# How it was run: as §1
# [24] = molecular target: Gal(b1-4)GlcNAc(b1-2)Man(a1-3)[Gal(b1-4)GlcNAc(b1-2)Man(a1-6)]Man(b1-4)GlcNAc(b1-4)[Fuc(a1-6)]GlcNAc
# How it was run: as §1
# [25] = molecular target: Gal(b1-4)GlcNAc(b1-2)Man(a1-3)[Gal(b1-4)GlcNAc(b1-2)Man(a1-6)][Gal(b1-4)GlcNAc(b1-4)]Man(b1-4)GlcNAc(b1-4)[Fuc(a1-6)]GlcNAc
# How it was run: as §1
# [26] = molecular target: Gal(b1-4)GlcNAc(b1-2)Man(a1-3)[Gal(b1-4)GlcNAc(b1-2)Man(a1-6)][GlcNAc(b1-4)]Man(b1-4)GlcNAc(b1-4)[Fuc(a1-6)]GlcNAc
# How it was run: as §1
# [27] = molecular target: Gal(b1-4)GlcNAc(b1-2)Man(a1-3)[GlcNAc(b1-2)Man(a1-6)]Man(b1-4)GlcNAc(b1-4)GlcNAc
# How it was run: as §1
# [28] = molecular target: Gal(b1-4)GlcNAc(b1-2)Man(a1-3)[GlcNAc(b1-4)][Gal(b1-4)GlcNAc(b1-2)Man(a1-6)]Man(b1-4)GlcNAc(b1-4)GlcNAc
# How it was run: as §1
# [29] = molecular target: Gal(b1-4)GlcNAc(b1-2)Man(a1-3)[Man(a1-6)]Man(b1-4)GlcNAc(b1-4)GlcNAc
# How it was run: as §1
# [30] = molecular target: Gal(b1-4)GlcNAc(b1-2)Man(a1-6)Man(b1-4)GlcNAc(b1-4)GlcNAc
# How it was run: as §1
# [31] = molecular target: Gal(b1-4)GlcNAc(b1-2)Man(a1-6)[GlcNAc(b1-2)Man(a1-3)]Man(b1-4)GlcNAc(b1-4)GlcNAc
# How it was run: as §1
# [32] = molecular target: Gal(b1-4)GlcNAc(b1-2)Man(a1-6)[Man(a1-3)]Man(b1-4)GlcNAc(b1-4)GlcNAc
# How it was run: as §1
# [33] = molecular target: Gal(b1-4)GlcNAc(b1-2)[Gal(b1-4)GlcNAc(b1-4)]Man(a1-3)[Gal(b1-4)GlcNAc(b1-2)Man(a1-6)]Man(b1-4)GlcNAc(b1-4)GlcNAc
# How it was run: as §1
# [34] = molecular target: Gal(b1-4)GlcNAc(b1-2)[Gal(b1-4)GlcNAc(b1-4)]Man(a1-3)[Gal(b1-4)GlcNAc(b1-2)[Gal(b1-4)GlcNAc(b1-6)]Man(a1-6)]Man(b1-4)GlcNAc(b1-4)GlcNAc
# How it was run: as §1
# [35] = molecular target: Gal(b1-4)GlcNAc(b1-2)[Gal(b1-4)GlcNAc(b1-4)]Man(a1-3)[GlcNAc(b1-4)][Gal(b1-4)GlcNAc(b1-2)Man(a1-6)]Man(b1-4)GlcNAc(b1-4)GlcNAc
# How it was run: as §1
# [36] = molecular target: Gal(b1-4)GlcNAc(b1-2)[Gal(b1-4)GlcNAc(b1-4)]Man(a1-3)[GlcNAc(b1-4)][Gal(b1-4)GlcNAc(b1-2)[Gal(b1-4)GlcNAc(b1-6)]Man(a1-6)]Man(b1-4)GlcNAc(b1-4)GlcNAc
# How it was run: as §1
# [37] = molecular target: Gal(b1-4)GlcNAc(b1-2)[Gal(b1-4)GlcNAc(b1-6)]Man(a1-6)[Gal(b1-4)GlcNAc(b1-2)Man(a1-3)]Man(b1-4)GlcNAc(b1-4)GlcNAc
# How it was run: as §1
# [38] = molecular target: Gal(b1-4)GlcNAc(b1-2)[Gal(b1-4)GlcNAc(b1-6)]Man(a1-6)[Gal(b1-4)GlcNAc(b1-2)Man(a1-3)]Man(b1-4)GlcNAc(b1-4)[Fuc(a1-6)]GlcNAc
# How it was run: as §1
# [39] = molecular target: Gal(b1-4)GlcNAc(b1-2)[Gal(b1-4)GlcNAc(b1-6)]Man(a1-6)[GlcNAc(b1-4)][Gal(b1-4)GlcNAc(b1-2)Man(a1-3)]Man(b1-4)GlcNAc(b1-4)GlcNAc
# How it was run: as §1
# [40] = molecular target: Gal(b1-4)GlcNAc(b1-2)[Gal(b1-4)GlcNAc(b1-6)]Man(a1-6)[GlcNAc(b1-4)][Gal(b1-4)GlcNAc(b1-2)[Gal(b1-4)GlcNAc(b1-4)]Man(a1-3)]Man(b1-4)GlcNAc(b1-4)[Fuc(a1-6)]GlcNAc
# How it was run: as §1
# [41] = molecular target: Gal(b1-4)GlcNAc(b1-3)Gal(b1-3)GalNAc
# How it was run: as §1
# [42] = molecular target: Gal(b1-4)GlcNAc(b1-3)Gal(b1-3)GlcNAc
# How it was run: as §1
# [43] = molecular target: Gal(b1-4)GlcNAc(b1-3)Gal(b1-4)Glc
# How it was run: as §1
# [44] = molecular target: Gal(b1-4)GlcNAc(b1-3)Gal(b1-4)GlcNAc
# How it was run: as §1
# [45] = molecular target: Gal(b1-4)GlcNAc(b1-3)Gal(b1-4)GlcNAc(b1-2)Man(a1-3)[Gal(b1-4)GlcNAc(b1-3)Gal(b1-4)GlcNAc(b1-2)Man(a1-6)]Man(b1-4)GlcNAc(b1-4)GlcNAc
# How it was run: as §1
binder,measurement,setting,value
B1,glycan array binding signal (z-score),[1],-0.248
same,glycan array binding signal (z-score),[2],-0.235
same,glycan array binding signal (z-score),[3],-0.249
same,glycan array binding signal (z-score),[4],-0.24
same,glycan array binding signal (z-score),[5],-0.248
same,glycan array binding signal (z-score),[6],1.61
same,glycan array binding signal (z-score),[7],-0.239
same,glycan array binding signal (z-score),[8],-0.242
same,glycan array binding signal (z-score),[9],-0.247
same,glycan array binding signal (z-score),[10],-0.242
same,glycan array binding signal (z-score),[11],-0.241
same,glycan array binding signal (z-score),[12],-0.252
same,glycan array binding signal (z-score),[13],-0.241
same,glycan array binding signal (z-score),[14],-0.24
same,glycan array binding signal (z-score),[15],-0.245
same,glycan array binding signal (z-score),[16],-0.227
same,glycan array binding signal (z-score),[17],-0.246
same,glycan array binding signal (z-score),[18],-0.231
same,glycan array binding signal (z-score),[19],-0.242
same,glycan array binding signal (z-score),[20],-0.241
same,glycan array binding signal (z-score),[21],-0.253
same,glycan array binding signal (z-score),[22],-0.223
same,glycan array binding signal (z-score),[23],4.25
same,glycan array binding signal (z-score),[24],2.28
same,glycan array binding signal (z-score),[25],-0.244
same,glycan array binding signal (z-score),[26],-0.244
same,glycan array binding signal (z-score),[27],3.58
same,glycan array binding signal (z-score),[28],-0.106
same,glycan array binding signal (z-score),[29],3.48
same,glycan array binding signal (z-score),[30],-0.245
same,glycan array binding signal (z-score),[31],5.87
same,glycan array binding signal (z-score),[32],0.121
same,glycan array binding signal (z-score),[33],3.5
same,glycan array binding signal (z-score),[34],3.15
same,glycan array binding signal (z-score),[35],-0.239
same,glycan array binding signal (z-score),[36],-0.252
same,glycan array binding signal (z-score),[37],-0.049
same,glycan array binding signal (z-score),[38],0.097
same,glycan array binding signal (z-score),[39],-0.25
same,glycan array binding signal (z-score),[40],-0.245
same,glycan array binding signal (z-score),[41],-0.248
same,glycan array binding signal (z-score),[42],-0.232
same,glycan array binding signal (z-score),[43],-0.232
same,glycan array binding signal (z-score),[44],-0.243
same,glycan array binding signal (z-score),[45],-0.137
